This is an account of results in ChEMBL document CHEMBL4888484, “Replenishing the malaria drug discovery pipeline: Screening and hit evaluation of the MMV Hit Generation Library 1 (HGL1) against asexual blood stage Plasmodium falciparum ,using a nano luciferase reporter read-out” (2022).

About 540 (0.36%) of roughly 150,000 compounds showed an effect of 50% or more. This is one part of the list.

The test system of this experiment is Plasmodium falciparum. Description: Primary screen in NF54 nanoGlo assay, in single point, at 2uM, 72h; a lower Z score goes with more inhibition. Particulars: timepoint 72 hour. In kind it is functional, Erythrocyte.
In the case of `CCOC1=C(CN(C)C)[C@@H](c2ccc(F)cc2)Oc2ccccc21`, the “% Inhibition” value was -5% and the Z score was 0.62.
As to `COc1ccc(OC)c(C(=O)N(C2CCCC2)C2CC2)c1`, the “% Inhibition” value is -8% and the Z score is recorded as 1.18.
On to `CN(C)Cc1csc(CNC(=O)N[C@H]2CC23CCCCC3)n1`, for which the “% Inhibition” value is -5% and the Z score is given as 0.81.
On the same counts, the results for `Cc1nn(-c2nc3ccccc3s2)c(O)c1C(c1ccc(Cl)c(Cl)c1)c1c(C)nn(-c2nc3ccccc3s2)c1O` are -10% and 0.88.
On the same counts, the results for `COCCN(C)c1nnc(C2COCCO2)n1CC1CCC(C)C1` (stereo unspecified) are -8% and 1.04.
On the same counts, the results for `CCCS(=O)(=O)NCc1cccnc1N1CCCCCCC1` are -8% and 0.9.
Turning to `CCc1ccccc1/N=C(/NCc1ccccn1)NC(=O)c1ccc2c(c1)OCO2`, the “% Inhibition” value is -10% and the Z score is on record as 0.93.
On the same counts, the results for `CCc1noc(C)c1C(=O)N[C@H]1CC(=O)N(CC2CCCCC2)C1` are -7% and 1.26.
Take `CC1CC(C)CN(S(=O)(=O)c2ccc(S(=O)(=O)Nc3ccon3)cc2)C1` (stereo unspecified): the “% Inhibition” value was -6% and the Z score was 0.92.
On the same counts, the results for `CCC[C@H](NC1CCN(C(=O)OCC)CC1)c1nccn1C` are -9% and 1.4.
For `CCCc1sc(C(=O)Nc2nnc(C3CC3)s2)cc1CC`, the “% Inhibition” value is -10% and the Z score worked out at 1.24.
Consider `CCc1cc(-c2nccn2-c2cccc(-c3nc(CC)no3)c2)on1`, for which the “% Inhibition” value came out at 5% and the Z score is given as -0.96.
In the case of `Cc1ccc2nc(-c3ccccc3)c(CN3CCOCC3)c(O)c2c1`, the “% Inhibition” value is 9% and the Z score is recorded as -1.13.
For `CC(NC1CC2CCCCN2C1=O)c1ccc(C(F)F)nc1` (stereo unspecified) the same measures were 5% and -0.74.
For `Cc1cc(CCNC(=O)N2CCOC(C(F)(F)F)C2C)cc(C)c1O` (stereo unspecified) the same measures were -17% and 3.33.
On the same counts, the results for `Cn1cccc1C(=O)N1CCN(Cc2ccncc2)[C@@H]2CS(=O)(=O)C[C@@H]21` are -8% and 1.54.
On to `C[C@@H](Cc1nc(CC2CCN(C)CC2)nn1CCO)c1ccccc1`, for which the “% Inhibition” value worked out at 1% and the Z score is reported as -0.16.
For `COCCN1C[C@@H](Cc2ccnc3c(C)c(C)ccc23)CC1=O` the same measures were 1% and -0.19.
Turning to `CC(C)n1ccnc1CN(C)CCCN1CCCCCC1`, the “% Inhibition” value is reported as -3% and the Z score is 0.52.
Regarding `COc1ccc(F)cc1S(=O)(=O)N1CC(=O)N2C[C@@H](OC)C[C@H]2C1`, the “% Inhibition” value is reported as -6% and the Z score came to 0.86.
Take `COc1ccc(CCNC(=O)[C@H]2CC[C@H](Cn3c(=O)[nH]c4ccccc4c3=O)CC2)cc1`: the “% Inhibition” value is reported as -1% and the Z score stood at 0.13.
On the same counts, the results for `Cc1cc(C)nc(-n2nc(C)c(CC(=O)N(C)C3CCCC3)c2C)n1` are -6% and 0.88.
For `COc1ccc(O[C@H]2CCN(C(=O)NCc3ccc(F)cc3)C2)nn1` the same measures were -8% and 0.92.

The % Inhibition is the change of the read-out against control, counted positive when it falls.
